# In PubChem BioAssay AID743279 (National Center for Advancing Translational Sciences (NCATS), 2014):
# Among all 360,000 compounds or so, about 17,000 (4.7%) were called active. This list was built around the results that the source calls inconclusive (neither active nor inactive); the mix of calls is not that of the screen. Cut-off read from the data, not from the text of the source: active = activity change below about -50%; inconclusive = mostly about -30% to -49%; inactive = weaker than that. More than one record can exist for a structure, and the calls need not agree.
# Assay: qHTS for Inhibitors of Inflammasome Signaling: IL-1-beta AlphaLISA Primary Screen
# Conditions: THP-1 LPS/ATP IL-1B secretion, 16 h; at 57.5 µM, active compounds read low
# In short: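 THP-1 cells pretreated 1 hr with compounds (up to 57.5 uM final), then stimulated with LPS (250 ng/mL final) plus ATP (1.25 mM final); secreted IL-1B measured by AlphaLISA after 16 hr, decreased signal indicating inhibition.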
# % is set by controls: 0 for no effect and ±100 for the full control effect.
row,Compound,activity change
1,C=C1CCN(c2ccc(C(=O)NCc3ccccc3)cc2[N+](=O)[O-])CC1,inactive: 0%
2,CC(C)C(=O)NC(=S)N1CCc2ccccc21,inactive: 1.12%
3,CCc1nc2ccc(C(=O)Nc3cccc(OCC(=O)N(C)C)c3)cn2c1N(CCC(C)C)CCN(C)C,inconclusive: -31.1%
4,CCN1CCCC1CN(Cc1cc2cc(C)cc(C)c2[nH]c1=O)C(=O)Nc1ccccc1OC (stereo unspecified),inconclusive: -31.9%
5,Fc1ccc(Nc2nnc(C(F)(F)F)s2)cc1,active: -69.2%
6,CCCN1CCCc2cc(CN(CCCN3CCOCC3)C(=O)Nc3ccc(OCC)cc3)ccc21,inconclusive: -31.5%
7,CCCCNC(=O)C[C@@H]1C[C@@]2(C(=O)OCC)CCCC=C2N(Cc2ccccc2)C1=O,inconclusive: -38.5%
8,C/C(CC(=O)Nc1ccc(OCc2ccccc2)cc1)=N\NC(=O)C(=O)Nc1cccc(C)c1,inconclusive: -33.4%
9,COCC1CCN(C(=O)c2ccc3oc(Cc4ccc(Cl)cc4)nc3c2)C1 (stereo unspecified),inconclusive: -32.6%
10,O=C(COC(=O)c1cnc(Cl)c(Cl)c1)NC1CC1,inconclusive: -31.5%
11,COc1ccc(-c2cn[nH]c2-c2ccc(OCc3ccccc3F)cc2O)cc1OC,inconclusive: -38.3%
12,CCc1ccc(C(=O)COC(=O)c2cccnc2Cl)cc1,inactive: 8.21%
13,CC(=NNc1ccc([N+](=O)[O-])cn1)c1ccc(N)cc1,inconclusive: -35.3%
14,O=C(Cc1ccc(F)cc1)Nc1cccc(-c2cn3c(n2)SCC3)c1,inconclusive: -47.7%
15,CC1=C(C(=O)Nc2cccc(C(=O)N3CCN(c4cccc(C(F)(F)F)c4)CC3)c2)SCCO1,active: -60.7%
16,Cc1ccc2cc(CN(CCc3ccccc3)C(=S)NCCCN(C)C)c(=O)[nH]c2c1,inconclusive: -40.9%
17,CCOC(=O)N1CCN(C(=O)c2ccc3nc(SCc4ccc(F)cc4)n(C)c3c2)CC1,inconclusive: -30.8%
18,C#Cc1ccc([C@H]2C=C(C(=O)N3CCN(Cc4ccc5c(c4)OCO5)CC3)O[C@@H](OCC)[C@@H]2CCCO)cc1,active: -50.1%
19,COc1ccc(C(CNC(=O)c2ccc(S(=O)(=O)N(C)C)cc2)N2CCCCC2)cc1 (stereo unspecified),inactive: -4.64%
20,CN(C(=O)COC(=O)Cc1ccc(Cl)cc1)C1CCCCC1,inactive: -5.87%
21,CC1CCCCC1NC(=O)COC(=O)c1ccc2c(c1)NC(=O)CS2 (stereo unspecified),inactive: 27.1%

row,Compound,activity change
1,COc1cccc(C(=O)NCCS(=O)(=O)NCCc2ccccc2)c1,inactive: -13.7%
2,Cc1noc(C)c1CSCC(=O)Nc1nc2ccccc2s1,inconclusive: -33.2%
3,CN1C2C=C(N(CCc3c[nH]c4ccccc34)C(=O)c3ccc(Cl)cc3)CC1CC2 (stereo unspecified),inactive: -14.7%
4,Cc1ccc(-c2c(C(=O)N/N=C/c3ccc(C)o3)nnn2-c2nonc2N)cc1,inactive: -0.333%
5,CCN1CCN(CC(=O)Nc2cc(S(=O)(=O)N(CC)c3ccccc3)ccc2Cl)CC1,inconclusive: -46.3%
6,CCOC(=O)/C=C/C(=O)Nc1ccc(S(=O)(=O)N2CCc3ccccc32)cc1,inconclusive: -34%
7,Cc1onc(-c2ccccc2)c1C(=O)NCC(=O)Nc1cc(Cl)ccc1Cl,inconclusive: -30.8%
8,CCC(C)N1CCC2(CC1)N=c1c(c3c4c5c(C)c(O)c3c(O)c1=NC(=O)C(C)=CC=C[C@H](C)[C@H](O)[C@@H](C)[C@@H](O)[C@@H](C)[C@H](OC(C)=O)[C@H](C)[C@@H](OC)C=CO[C@@](C)(O5)C4=O)N2 (stereo partly specified),inconclusive: -38.5%
9,CCn1cc(Cl)c(C(=O)N2N=C3/C(=C/c4cccs4)CCCC3C2c2cccs2)n1 (stereo unspecified),inconclusive: -40.3%
10,CN(C(=O)c1cccc(NC(=O)Cc2cccc(NC(=O)C3CCN(C(=O)c4ccccc4)CC3)c2)c1)C1CCCC1,inactive: -3.46%
11,Cc1ccc(-c2cc(C(=O)Nc3c(C)n(C)n(-c4ccccc4)c3=O)c3ccccc3n2)cc1,inactive: -5.37%
12,CCCn1cc(S(=O)(=O)c2ccccc2)c(=O)c2cc(OC)c(OC)cc21,inconclusive: -38.5%
13,O=C(NC(=S)Nc1cccc(O)c1)C1CCCCC1,inconclusive: -31.2%
14,Cc1nnc(N/N=C/c2cccc(OCc3ccc(Cl)c(Cl)c3)c2)n1N,active: -83.9%
15,CCOc1ccc(OCCC(=O)N(CCOC)c2c(N)n(Cc3ccccc3)c(=O)[nH]c2=O)cc1,inactive: -6.83%
16,O=C(NCc1ccccc1F)C1CCCN1S(=O)(=O)c1ccc(Cl)cc1 (stereo unspecified),inactive: 22.9%
17,COc1ccc(/C=N/n2c(-c3cccs3)n[nH]c2=S)cc1,inconclusive: -30.8%
18,N#CCC(=O)Nc1ccc(C(=O)OCC(=O)NC(=O)Nc2ccc3c(c2)OCCO3)cc1,inconclusive: -38.3%
19,N#CC1=C(N)Oc2c(O)cc3ccccc3c2C1c1ccsc1 (stereo unspecified),active: -86.3%
20,COCCNC(=S)N1CCc2cc(OC)c(OC)cc2C1COc1cc(C)cc(C)c1 (stereo unspecified),inconclusive: -40.6%
21,C#CCNC(=O)C[C@@H]1C[C@@]2(C(=O)OCC)CCCC=C2N(Cc2ccccc2)C1=O,inactive: -8.72%

row,Compound,activity change
1,CCCNC(=O)C1(C)CCCN(Cc2csc(-c3ccccc3)n2)C1 (stereo unspecified),inconclusive: -34.1%
2,CCn1c2ccccc2c2cc(C3C(C#N)=C(N)Oc4n[nH]c(COC)c43)ccc21 (stereo unspecified),inconclusive: -42.3%
3,S=C(NCc1ccccc1)NC1CCSc2ccccc21 (stereo unspecified),active: -73.7%
4,Cc1nc2ccc(NC(=O)c3cccc(C(F)(F)F)c3)cc2o1,inconclusive: -30.5%
5,CN1CCc2c(sc(/N=C/c3cccs3)c2C(N)=O)C1,inactive: -7.59%
6,COc1ccc(C2CC(C)=C(C#N)S(=O)(=O)C2C#N)cc1 (stereo unspecified),inactive: -14.4%
7,Cc1cc(SCC(=O)N/N=C/c2ccco2)nc2ccccc12,inactive: 21.1%
8,O=[N+]([O-])c1ccccc1OCCCn1cnc2ccccc21,inactive: -23.7%
9,O=C(Nc1ccc2c(c1)[C@@H]1C[C@@H](CC(=O)N3CCOCC3)O[C@@H](CO)[C@@H]1O2)NC1CCCC1,inactive: 27.8%
10,CCN(CC)CCCC(C)n1c2nc(=O)[nH]c(=O)c-2nc2cc(Cl)ccc21 (stereo unspecified),active: -77.2%
11,COc1ccc(-c2csc(NC(C)c3nc4cc(C(F)(F)F)ccc4n3CCOCCO)n2)cc1 (stereo unspecified),inconclusive: -37.9%
12,COc1ccc(N(CC(=O)NC(C)c2ccccc2)S(=O)(=O)c2c(C)noc2C)cc1 (stereo unspecified),inconclusive: -46.5%
13,COc1ccc(C(O)(CCC(C)C)C(CN2CCOCC2)c2ccc(Cl)cc2)cc1 (stereo unspecified),active: -81.4%
14,COc1ccc(/C=C/C(=O)O/N=C(\N)c2ccccn2)cc1OC,inactive: 1.71%
15,COc1ccccc1NC(=O)Nc1ccc(N2CCOCC2)cc1,inconclusive: -41.7%
16,CC(C)(C)c1ccc(OCC(=O)NCC(c2cccs2)N2CCOCC2)cc1 (stereo unspecified),inconclusive: -40%
17,Cc1nn(-c2ccccc2)c(Cl)c1C(=O)Nc1nnc(C2CCCCC2)s1,inconclusive: -43.8%
18,O=C(CN1C(=O)C(=O)N(C2CCCC2)C1=O)Nc1cc(Cl)ccc1[N+](=O)[O-],inactive: -8.36%
19,Cc1ccccc1C(=O)OCC(=O)Nc1cccc(S(=O)(=O)NC2=NCCC2)c1,inactive: -12.2%
20,Cc1cccc(NS(=O)(=O)c2ccc(C(=O)N3CCN(c4ccccc4O)CC3)cc2)c1C,inconclusive: -44.4%
21,CN1/C(=C\C=C2/C(=O)Oc3ccccc3C2=O)C(C)(C)c2ccccc21,inconclusive: -47.1%

row,Compound,activity change
1,CN1C2CCC1CC(NC(=O)c1ccc(Cl)cc1)C2 (stereo unspecified),inactive: 0%
2,CC1(C)CC(=O)C2=C(C1)N=C1c3ccccc3C(=O)C1C2c1ccc(Cl)cc1 (stereo unspecified),active: -59.5%
3,CCN(CC)C(=O)C1=C(C)N(Cc2ccc(F)cc2)C(=O)C(CC(=O)NCc2cccs2)C1 (stereo unspecified),inconclusive: -34.7%
4,CC(=O)OCCCNc1cc(Sc2ccc(Cl)cc2)c2nonc2c1[N+](=O)[O-],inconclusive: -37.6%
5,CN(C)c1ccc(/C=N/N=C(N)N)cc1[N+](=O)[O-],inconclusive: -35%
6,Cc1ccc(Oc2cc(NC(=O)CCCn3nc([N+](=O)[O-])cc3C)cc([N+](=O)[O-])c2)cc1,inconclusive: -45.9%
7,O=[N+]([O-])c1cccnc1Sc1n[nH]c(-c2ccc(Cl)cc2)n1,inconclusive: -43.8%
8,CCCCNC(=O)/C(C#N)=C/c1ccc(F)cc1F,active: -89.9%
9,CCc1ncc(CN2CCC(C(=O)Nc3cccc(-c4cscn4)c3)CC2)cn1,inactive: -3.18%
10,COc1cc(CNC(=O)Nc2nc(C(N)Cc3ccc(Cl)cc3)cs2)cc(OC)c1OC (stereo unspecified),active: -74.1%
11,CCCCCn1c(=NC(=O)c2ccco2)c(C(=O)OCC)cc2c(=O)n3ccccc3nc21,active: -74.1%
12,Cc1ccc2cc(CN(CC3CCCO3)C(=S)NCc3ccco3)c(=O)[nH]c2c1C (stereo unspecified),inconclusive: -40.7%
13,c1ccc(-c2cn(-c3ccccc3)c3ncnc(N4CCCCC4)c23)cc1,active: -57.3%
14,CCOC(=O)c1c(C2CC2)csc1NC(=O)COC(=O)c1ccc[n+]([O-])c1,inactive: -2.78%
15,C[C@@H](C(=O)NCCc1c[nH]c2ccccc12)[C@@H]1C[C@@]1(C)[C@@H](NC(=O)OCc1ccccc1)c1ccccc1,inconclusive: -42.8%
16,O=C(CCl)N1CCN(S(=O)(=O)c2ccc3ccccc3c2)CC1,active: -99.5%
17,CCOc1ccc(N2CC(C(=O)NCCc3ccccc3)CC2=O)cc1 (stereo unspecified),inactive
18,Cc1ccc(S(=O)(=O)Cn2nnnc2C(CC(C)C)N2CCN(C3CCCC3)CC2)cc1 (stereo unspecified),inconclusive: -42.8%
